{
  "source": "the supplement of paper PMC11417369",
  "note": "The list shows a part of the results.",
  "data": [
    {"tested_on": "PF3D7_0420300 AP2 domain 1 (GST-tagged)", "test": "gcPBM binding intensity (ln(normalized median fluorescence intensity)); higher = stronger DNA binding", "how_it_was_run": "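Alexa488 anti-GST antibody, scanned at 488 nm, detected GST-tagged P. falciparum DNA-binding domains that had been expressed in E. coli and incubated for 1 h on an Agilent 4 × 180k array. The array carried primer-extended double-stranded 36-bp intergenic genomic probes and negative controls. Binding intensity is the highest Masliner-normalised natural-log median intensity across replicate spots of either orientation of each probe.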", "values": [
      {"sequence": "ATGATACATAAAGAATATAAAACATGAAATATAATA [CACACA_negctrl_site1461]", "gcPBM binding intensity (ln)": 9.51},
      {"sequence": "AACTGAGAAACCGAAGTGCAATATGTATATATACAT", "gcPBM binding intensity (ln)": 9.36},
      {"sequence": "ATATGAAAGGTGTACACACGCACACCCAAAAAAATA [CACACA_site2911]", "gcPBM binding intensity (ln)": 9.57},
      {"sequence": "TAATTTAAAAATATAAATGTTTCACTTATATATTTT [TGCATGCA_negctrl_site399]", "gcPBM binding intensity (ln)": 8.89},
      {"sequence": "ATATATAATATATATGCATGTGACATTAATAATATA [TGCATGCA_site880]", "gcPBM binding intensity (ln)": 9.18},
      {"sequence": "CCACACTTAAAATACACACACACCAAAAAAAAAAAA [CACACA_site2709]", "gcPBM binding intensity (ln)": 10},
      {"sequence": "TTTTTTACGCATAACTTAATATGAGAATCCCTTTCT [GTGCAC_negctrl_site522]", "gcPBM binding intensity (ln)": 9.07},
      {"sequence": "TTCCTCTTAAAATATACACACTGATTTAAGAAAAAA [CACACA_site5770]", "gcPBM binding intensity (ln)": 8.94},
      {"sequence": "ATATATAATACTACAGTGCAATATATTATATTTGTT", "gcPBM binding intensity (ln)": 9.27},
      {"sequence": "TTGTGATTATTATATTGTACAATAAGTATTAAAGAA [XGTACX_site2753]", "gcPBM binding intensity (ln)": 9.2},
      {"sequence": "GCAAATCATGCTATGGTGCATATGTAAGATGAGCAT", "gcPBM binding intensity (ln)": 9.04},
      {"sequence": "ATACTAAATATAAATTGTACTTTATTTATATTGAGA [XGTACX_site8699]", "gcPBM binding intensity (ln)": 9.08},
      {"sequence": "TTAACATAGATATATACACACCAATGATGGCATTTA [CACACA_site6840]", "gcPBM binding intensity (ln)": 9.3},
      {"sequence": "TATATATATATATATATACACACTATATAATTCAAA [CACACA_site1023]", "gcPBM binding intensity (ln)": 9.27},
      {"sequence": "TTTTTTTTTTTTTAGAGTACACACTTTTTTACATTT [XGTACX_site8159]", "gcPBM binding intensity (ln)": 9.19},
      {"sequence": "CATAAAATATAAAACACACACACATATATTTATATA [CACACA_site6247]", "gcPBM binding intensity (ln)": 10},
      {"sequence": "AAATAAAAGTTCACCTGTACACACATATATATATGT [XGTACX_site3513]", "gcPBM binding intensity (ln)": 9.56},
      {"sequence": "AAAATAATATTTAATACACACATAATTATAATATAA [CACACA_site782]", "gcPBM binding intensity (ln)": 9.5},
      {"sequence": "ATTTTTAATTGAATCACACATTTCCTTTCTTTTGTG [CACACA_site4438]", "gcPBM binding intensity (ln)": 9.41},
      {"sequence": "ATTAAAAATAAGAAGAGTACATATAATATATATACA [XGTACX_site3092]", "gcPBM binding intensity (ln)": 9.29},
      {"sequence": "ACCTTTTGGATTATATGTACATATATATATATATAT [XGTACX_site2687]", "gcPBM binding intensity (ln)": 9.33},
      {"sequence": "TTAAAAAGAAAGTTCACACACATATATATGACGGAA [CACACA_site2602]", "gcPBM binding intensity (ln)": 9.69},
      {"sequence": "AGAATACATCTATGAACACACAGAGTTTTAAAAAAT [CACACA_site5514]", "gcPBM binding intensity (ln)": 9.39},
      {"sequence": "TTTTTCATTTAACAGAAGGGAGATAAAAAAAAAAAA [TGCATGCA_negctrl_site261]", "gcPBM binding intensity (ln)": 8.89},
      {"sequence": "ATATTATTTTAAAGTACACACATATATTGATATATA [CACACA_site7153]", "gcPBM binding intensity (ln)": 9.39},
      {"sequence": "GTATGTATGTATGTATGTACGTATGTATGTATATAT [XGTACX_site3369]", "gcPBM binding intensity (ln)": 9.43},
      {"sequence": "AATAATTATAAAAAATGTACAAAAAAAAAAAAAAAA [XGTACX_site3681]", "gcPBM binding intensity (ln)": 9.08},
      {"sequence": "TATTTTTTTAAAAATACACACATAAAATCATGAAAA [CACACA_site1085]", "gcPBM binding intensity (ln)": 9.26},
      {"sequence": "TTTTTTTATATTTTTAGTACACATTGGTATATATAT [XGTACX_site4114]", "gcPBM binding intensity (ln)": 9.38},
      {"sequence": "ATATATATATGTCAAAGTACTAAAAATATATACATA [XGTACX_site3397]", "gcPBM binding intensity (ln)": 9.2},
      {"sequence": "CATAGAATAATTTATTGTACGTGCATGCTATTTTTT [XGTACX_site8984]", "gcPBM binding intensity (ln)": 9.37},
      {"sequence": "ATTAAATATATGATGTGTACATATTCGTGTATGTTT [XGTACX_site2141]", "gcPBM binding intensity (ln)": 9.57},
      {"sequence": "AAACAGAATACATATACACACATACAAAAAAGTGCA [CACACA_site8235]", "gcPBM binding intensity (ln)": 9.85},
      {"sequence": "TATACATTTTTATAAAGTACACAAAAATAAATATAA [XGTACX_site1647]", "gcPBM binding intensity (ln)": 9.17},
      {"sequence": "AATGCTATCTTCTTATTTTTCATACACAACATGAAC [CACACA_negctrl_site1809]", "gcPBM binding intensity (ln)": 9.4},
      {"sequence": "TATAATATTTATATAACACACATATATATTTATTTA [CACACA_site280]", "gcPBM binding intensity (ln)": 9.26},
      {"sequence": "AAAATAAATTTTTATGTTATATATACAATTTCTCTA [CACACA_negctrl_site1760]", "gcPBM binding intensity (ln)": 9.02},
      {"sequence": "TTATGAAATAGAATAACACACATATTTATATATGTG [CACACA_site2050]", "gcPBM binding intensity (ln)": 9.39},
      {"sequence": "TATATATTATAAAATAGTACACAGAATTTAAATATA [XGTACX_site100]", "gcPBM binding intensity (ln)": 9.31},
      {"sequence": "TATATATAGAAACACACACACATATATATATATTTT [CACACA_site2540]", "gcPBM binding intensity (ln)": 10.1},
      {"sequence": "TTGTTGATTGTTATTTATCATTAGATGTAAAATATG [CACACA_negctrl_site927]", "gcPBM binding intensity (ln)": 9.26},
      {"sequence": "AATATTTTTTTATAAACACACATATAAATAAATATA [CACACA_site7622]", "gcPBM binding intensity (ln)": 9.21},
      {"sequence": "TCTTTTAAACAGTACACACACACATATATATATATA [CACACA_site924]", "gcPBM binding intensity (ln)": 9.94},
      {"sequence": "ATATCTATAATAAACACACACATATACCTATAGGTA [CACACA_site7596]", "gcPBM binding intensity (ln)": 9.73},
      {"sequence": "TATTATATGTATTGCACACCTTCAACAACTACTTCT [CACACA_site655]", "gcPBM binding intensity (ln)": 9.56}
    ]}
  ]
}
